Among all 310,000 compounds or so, about 14,000 (4.5%) showed an effect of 50% or more. Effects have a minus sign here. The list shows a part of the results.
molecular target: human ether-à-go-go-related gene (hERG) potassium channel (human, UniProt Q12809); assay: primary screen, population patch clamp on CHO cells stably expressing hERG
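Further: peak tail current of the secondary pulse compared with the same well before compound.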

human ether-à-go-go-related gene (hERG) potassium channel, sequence (Q12809 whole entry, looked up): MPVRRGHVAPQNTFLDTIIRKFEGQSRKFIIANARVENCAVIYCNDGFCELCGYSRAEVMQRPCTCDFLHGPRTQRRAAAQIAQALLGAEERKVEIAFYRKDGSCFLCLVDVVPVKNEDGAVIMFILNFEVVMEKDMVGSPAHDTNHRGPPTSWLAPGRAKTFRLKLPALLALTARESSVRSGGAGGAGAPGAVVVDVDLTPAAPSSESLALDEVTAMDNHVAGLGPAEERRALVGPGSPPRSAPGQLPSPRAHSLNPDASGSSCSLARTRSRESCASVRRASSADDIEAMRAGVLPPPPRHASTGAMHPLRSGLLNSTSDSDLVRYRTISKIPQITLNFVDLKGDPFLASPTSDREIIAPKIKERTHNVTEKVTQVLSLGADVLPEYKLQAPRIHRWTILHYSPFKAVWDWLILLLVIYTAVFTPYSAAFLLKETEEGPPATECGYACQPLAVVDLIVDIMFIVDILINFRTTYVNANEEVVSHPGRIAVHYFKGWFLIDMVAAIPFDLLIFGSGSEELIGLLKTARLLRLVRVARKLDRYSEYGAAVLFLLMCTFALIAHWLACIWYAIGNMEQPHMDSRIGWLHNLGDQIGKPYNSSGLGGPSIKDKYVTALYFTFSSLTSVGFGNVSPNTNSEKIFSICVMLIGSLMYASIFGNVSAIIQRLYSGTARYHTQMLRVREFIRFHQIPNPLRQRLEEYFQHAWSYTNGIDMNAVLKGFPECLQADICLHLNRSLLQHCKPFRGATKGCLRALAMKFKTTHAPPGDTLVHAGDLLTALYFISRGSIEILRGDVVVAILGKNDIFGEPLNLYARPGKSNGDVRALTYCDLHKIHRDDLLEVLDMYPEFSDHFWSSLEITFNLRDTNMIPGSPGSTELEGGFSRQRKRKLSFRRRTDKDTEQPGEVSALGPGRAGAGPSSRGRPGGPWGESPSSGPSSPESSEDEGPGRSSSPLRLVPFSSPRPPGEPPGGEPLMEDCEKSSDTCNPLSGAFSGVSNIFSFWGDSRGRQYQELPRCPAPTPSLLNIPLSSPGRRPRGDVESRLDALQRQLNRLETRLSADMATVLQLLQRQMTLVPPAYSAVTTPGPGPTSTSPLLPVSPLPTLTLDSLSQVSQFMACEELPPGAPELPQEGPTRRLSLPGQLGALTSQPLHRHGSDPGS

SMILES	hERG current change (%, negative = inhibition) at 10uM [%]
Cc1c(NS(=O)(=O)c2cccc(C(=O)NCc3ccccc3)c2)c(=O)n(-c2ccccc2)n1C	4.59
CCOC(=O)/C(C#N)=C/c1c(N2CCN(C)CC2)nc2ccccn2c1=O	9.23
COc1ccc(NC(=O)C(=O)NNC(=O)c2cccs2)c(OC)c1	-6.86
CC(C)CNC(=O)CSc1nc2scc(-c3ccccc3)c2c(=O)[nH]1	1.58
O=C(OCCN1C(=O)c2ccccc2C1=O)C1CC(O)CN1S(=O)(=O)c1ccc(Cl)cc1 (stereo not shown)	-15.1
CCOC(=O)C1=C(CSc2nc3ccccc3s2)NC(=O)NC1c1ccc(OC)cc1 (stereo not shown)	2.5
CS(=O)(=O)c1ccc(Cl)c(NC(=O)C2CC(=O)N(Cc3ccccc3)C2)c1 (stereo not shown)	-7.81
Cc1nc(Nc2ccc(Cl)cc2Cl)sc1C(=O)Nc1ccccc1	12.6
CCn1c(Cc2ccccc2)nnc1SCC(=O)NC1CC1	19.3
O=C(Cn1cc2c(n1)CCCC2)N1CCc2ccccc21	-2.05
COc1cccc(/C=N/n2cnc3c(cnn3-c3ccccc3)c2=O)c1	9.03
O=C1CCCN1c1ccc(S(=O)(=O)N2CCN(c3ccccn3)CC2)cc1	10.8
Cc1ccc(-c2nn(-c3ccccc3)cc2CN(Cc2ccccc2)C(=O)c2ccco2)o1	-7.34
CCOC(=O)C(=O)NNc1ccccc1C	-1.96
COc1ccccc1CN1CCN(C(c2ccccc2)c2ccccc2)CC1.O=C(O)C(=O)O	-55.1
C=CCN1C(=O)C(O)(CC(=O)c2ccc(Cl)cc2)c2ccccc21 (stereo not shown)	9.77
CCOC(=O)c1ccc(NC(=O)N2CCOCC2)cc1	22.3
Cc1cc(/C=N/N2CCN(C)CC2)c(C)n1-c1ccccc1F	2.54
COc1ccccc1NC(=S)N1CCN(C(=O)c2ccco2)CC1	12.8
CCN(CC)C(=O)c1ccc(-c2nnc(Nc3ccc(O)cc3)c3ccccc23)cc1	18.1
C[C@H](NC(=O)C1CC(=O)N(c2ccc3c(c2)OCCO3)C1)C(=O)NCc1ccco1 (stereo partly shown)	22.6
N#CCc1ccc(NC(=O)Nc2cccc3ccccc23)cc1	17.6

SMILES	hERG current change (%, negative = inhibition) at 10uM [%]
CCOc1ccc(C(C(=O)NC2CCCC2)N(C(=O)CNC(=O)c2ccco2)c2cccnc2)cc1 (stereo not shown)	11.6
Brc1ccc(-c2c(-c3ccsc3)sc3ccccc23)cn1	14.1
COc1ccc(S(=O)(=O)NCCN2CCOCC2)cc1[N+](=O)[O-]	14.9
O=C(CN1CCN(CC(=O)Nc2ccc3c(c2)OCO3)CC1)Nc1ccc(F)cc1	-73.4
COc1ccccc1NC(=O)c1cc2ccc(O)cc2o/c1=N\O	2.75
Cc1ccccc1C(=O)NC(CC(C)C)C(=O)OCC(=O)c1c(N)n(C)c(=O)n(C)c1=O (stereo not shown)	-1.31
CC(C)(CNC(=O)C1CCCC1)CNC(=O)C1CCCC1	13.9
Cn1nc(C(C)(C)C)cc1C(=O)Sc1cccc(Br)c1	23.9
C=C(C)CSc1nc(N)cc(=O)[nH]1	-1.7
COc1cccc(CNC(=O)C2CCN(S(=O)(=O)c3ccc4c(c3)CCC(=O)N4)CC2)c1	10.1
CS(=O)(=O)N1CCN(C2C3CC4CC(C3)CC2C4)CC1.O=C(O)C(=O)O (stereo not shown)	26.3
Cc1ccc(NC(=O)CNC(=O)c2ccccc2F)cc1Cl	5.9
COc1ccc(N2CCN(C(=N)/C(C(C)=O)=C(\C)O)CC2)cc1	24.2
Cc1cccc(C(=O)NNC(=O)c2c(-c3ccccc3Cl)noc2C)c1O	2.5
O=C(O)/C=C/c1cn(-c2ccccc2)nc1-c1cccs1	14
Cc1cc(-n2nnc3ccccc32)nc2ccccc12	14.3
C[C@]12C(=O)N(c3ccccc3)C(=O)N1[C@@H]1c3ccccc3OC[C@@H]1[C@H]2c1ccccc1	10.6
Cc1cc(C(=O)OCC(=O)Nc2nc(-c3ccccc3)cs2)c(C)o1	15.8
O=C1N(c2ccccc2)C[C@@H]2C[C@@H](c3cccc4c3OCO4)N3CCC[C@@]123	15.9
Cc1cc(Cl)ccc1NC(=O)CCCN1C(=O)CCC1=O	12.5
CCCCn1c(N)c(N(C)C(=O)C2CCCC2)c(=O)[nH]c1=O	15.2

— paper PMC4336329 (PLoS ONE, 2015)
